The results in this text go back to ChEMBL document CHEMBL5308541, “MAIP: An Open-Source Tool to Enrich High-Throughput Screening Output and Identify Novel, Druglike Molecules with Antimalarial Activity” (ACS Med Chem Lett, 2023).

In all, about 150,000 compounds went through this assay and about 540 (0.36%) showed an effect of 50% or more. This is one part of the list.

In this assay the test system is Plasmodium falciparum. The assay is described as follows: Primary screen in NF54 nanoGlo assay, in single point, at 2uM, 72h; a lower Z score goes with more inhibition. Conditions: timepoint 72 hour. It is filed as functional, Erythrocyte.
Regarding `Cc1ccc(NCCCNCc2cnc(N3CCCC3)s2)nc1`, the % Inhibition – broadly, the drop in the measured response relative to a control, in per cent – is listed as -3% and the Z score stood at 0.63.

Take `COC(=O)N(C)c1ccc(NCc2cc3cc(OC)ccc3o2)cc1`: the “% Inhibition” value stood at 5% and the Z score is reported as -0.99.

As to `CN(CCCNc1nnc([C@H](N)c2ccccc2)o1)C1CCCC1`, the “% Inhibition” value is recorded as -7% and the Z score was found to be 1.21.

For the compound `N#Cc1ccc(Nc2ccnc3c(F)cc(F)cc23)cc1`, the “% Inhibition” value is recorded as -2% and the Z score was found to be 0.52.

On to `CN1CCC(CNC(=O)[C@@H]2CCCN3CCCC[C@H]23)(N(C)C)CC1`, for which the “% Inhibition” value was 1% and the Z score is reported as -0.24.

Regarding `CC1CCN([C@@H](CNc2cc(N3CCN(C)C(=O)C3)ncn2)c2ccccc2)CC1`, the “% Inhibition” value was -1% and the Z score amounted to 0.29.

As to `CN1CCN(C[C@H]2CCCN(CCCn3cccn3)C2)CC1`, the “% Inhibition” value was -10% and the Z score turned out to be 1.52.

For the compound `CC(=O)N1CC2CN(c3nc4c(cc3C#N)CCCC4)CC2(C(=O)O)C1` (centres undefined), the “% Inhibition” value is reported as -8% and the Z score is listed as 1.54.

Turning to `COCCOC1CCN(Cc2cnc(NC(C)C)nc2)CC1`, the “% Inhibition” value is reported as -5% and the Z score was 0.94.

Regarding `Cn1cc(-c2nc(CC3CC3)cs2)nn1`, the “% Inhibition” value is recorded as -4% and the Z score is 0.81.

As to `CC(CO)C(C)NC(=O)c1cc(Br)cc2[nH]c(=O)[nH]c12` (centres undefined), the “% Inhibition” value is given as -15% and the Z score came out at 2.27.

Consider `CCN1CC(NC(=O)c2ccc(-c3cncc(C(C)(C)O)c3)cc2)C(OC)C1` (centres undefined), for which the “% Inhibition” value was -7% and the Z score was 1.15.

As to `CN(C)Cc1ccc([C@@H]2CCCN2c2nccc(N3CCC(O)CC3)n2)cc1`, the “% Inhibition” value is on record as -3% and the Z score turned out to be 0.45.

Take `CCN(CCC#N)c1ncc(Cl)cn1`: the “% Inhibition” value was -2% and the Z score is 0.39.

Regarding `C[C@]1(C(=O)N2CCC(Cc3ccccc3C(=O)O)CC2)CC1(F)F`, the “% Inhibition” value is reported as 9% and the Z score is -1.99.

Turning to `C[C@@H](CCc1ccc(F)cc1)NCC1CCN(C)CC1`, the “% Inhibition” value is 8% and the Z score is reported as -1.37.

Consider `O=C(Nc1ccc2cnccc2c1)N1CC[C@H](N2CCNCC2)C1`, for which the “% Inhibition” value is -19% and the Z score was found to be 3.3.

`c1cnc2nc(Nc3ccc(N4CCCC4)nc3)ccc2n1`: the “% Inhibition” value amounted to 7% and the Z score is given as -1.29.

Consider `CN1CCN(C[C@H]2CCCN(C(=O)c3ccnc4ccccc34)C2)CC1`, for which the “% Inhibition” value amounted to 5% and the Z score is on record as -1.03.

Take `CC(C)(C)n1ncc2c(NCc3ccc4cccnc4c3O)ncnc21`: the “% Inhibition” value is 31% and the Z score is -6.09.

For the compound `C[C@H]1CCCN(CCOc2ccccc2CN2CCN(c3cccnc3)CC2)C1`, the “% Inhibition” value is given as -2% and the Z score is listed as 0.3.

As to `CC1c2[nH]c3ccccc3c2CCN1CC(O)c1ccc(OC(F)(F)F)cc1` (centres undefined), the “% Inhibition” value was -4% and the Z score is 0.7.

As to `Cc1nc(CN2CCC(Nc3ncnc4sccc34)C(O)C2)cs1` (centres undefined), the “% Inhibition” value is -1% and the Z score was 0.11.

Take `c1cc2ncnc(NCc3ccnc(OC4CCOCC4)c3)c2cn1`: the “% Inhibition” value is given as -11% and the Z score is recorded as 2.31.

For the compound `CCc1nnc(NCCCCN2CCN(C)CC2)c(C#N)c1CC`, the “% Inhibition” value is -13% and the Z score was 2.86.

As for `OCCn1cc(Nc2cnc3cc(Cl)c(Cl)cc3n2)cn1`, the “% Inhibition” value was -7% and the Z score is 1.29.

Consider `O=C(c1cc(-c2cccs2)[nH]n1)N1CCCC2CNCCCC21` (centres undefined), for which the “% Inhibition” value is 4% and the Z score is listed as -0.67.

As for `Cc1cc(N2CCOCC2)ccc1N[C@@H](C)C(=O)c1c[nH]c2ccccc12`, the “% Inhibition” value is on record as 2% and the Z score was -0.4.

Turning to `Cc1ccnc(C(=O)Nc2ccc(Nc3cc(N4CCCC4)nc(C)n3)cc2)n1`, the “% Inhibition” value worked out at 1% and the Z score was -0.2.

As to `Cn1ccc2ccc(CN3CCC(CN4CCCCC4)CC3)cc21`, the “% Inhibition” value is given as -3% and the Z score amounted to 0.58.

As to `CNc1nc(NCCNc2ncccc2C)cc([C@H]2CCOC2)n1`, the “% Inhibition” value was -12% and the Z score is reported as 2.02.

For the compound `FC(F)Oc1cncc(-c2cccc([C@@H]3COCCN3)c2)c1`, the “% Inhibition” value is -5% and the Z score was found to be 0.94.

`Cn1nnc2c(C(=O)Nc3ccc4[nH]c(-c5ccccn5)nc4c3)ccnc21`: the “% Inhibition” value came to 12% and the Z score is on record as -2.52.

As to `Fc1cccc(-c2c[nH]c([C@@H]3CCCCN3c3nccc(-n4cccn4)n3)n2)c1`, the “% Inhibition” value is recorded as -10% and the Z score worked out at 1.78.

Regarding `Cc1cc(F)ccc1N1CCC(NCCNc2ncccc2C)CC1`, the “% Inhibition” value is 1% and the Z score was -0.28.

On to `Cc1cc(N2CCC(NCCc3cnn(-c4ccccc4)c3)CC2)nc(N)n1`, for which the “% Inhibition” value is -2% and the Z score came to 0.43.

`O=C(c1ccc(-c2ccc3ocnc3c2)cc1)N1CCCN2CCC[C@H]2C1`: the “% Inhibition” value was 7% and the Z score is on record as -1.13.

On to `Cn1ncc2c(N)nc(NCC[C@H]3CCCCN3Cc3ccccc3)nc21`, for which the “% Inhibition” value is -16% and the Z score is given as 2.71.

On to `Cn1nc(CO)c2c1CCN(Cc1cnc(NCc3ccccc3)nc1)C2`, for which the “% Inhibition” value was 9% and the Z score is -1.48.

Take `O=C(N[C@H]1CCCN(C2CCCCCC2)C1)c1ccccc1-c1ncc[nH]1`: the “% Inhibition” value worked out at 1% and the Z score was -0.24.

For the compound `Cc1nc(NC2CCN(c3ncnc4c3CCCC4)CC2)c2cnn(C)c2n1`, the “% Inhibition” value is listed as -4% and the Z score was 0.88.

In the case of `COc1ccc(-c2cc(N3CCC(C(=O)NCc4nc5ccccc5[nH]4)CC3)ncn2)cc1`, the “% Inhibition” value came to 2% and the Z score is -0.43.
